Measured values taken from the supplement of paper PMC10498489.
Hit rate of the full screen: of about 2,300 compounds, about 330 (14%) showed activity.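 Rule for the calls: active = median modified Z-score above 1.96; inactive = 1.96 or below.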 Only a part is listed here, and it is no random draw.

Each compound was assayed on HepG2 Srxn1-GFP reporter cells (+30 nM CDDO-Me) (assay: Srxn1-GFP intensity median modified Z-score relative to plate median; higher = stronger NRF2 / oxidative stress reporter activation, active = hit call of the paper). Conditions: 10 µM; exposure time: 24h.
Summary of the method: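 Per-cell cytoplasmic GFP was measured on confocal images of formaldehyde-fixed, Hoechst-stained HepG2 Srxn1-GFP BAC reporter cells, excluding images with fewer than 100 cells. Before this, the cells (20,000 per well, 96-well plates) were co-exposed for 24 h to compound at 10 μM and an NRF2 activator at 30 nM with ≤0.1% DMSO, in three replicate plates. Each value is the median over replicates of the per-plate modified Z-score of GFP intensity. That score was scaled with 1.4826 × median absolute deviation.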

Srxn1-GFP intensity median modified Z-score, active:
C=CCSCC=C [euspeclibcmpd1525] 2.8
Cc1cccc(Nc2ccccc2C(=O)O)c1C [euspeclibcmpd373] 2.69
CCC1(O)C=C(OC2CC(N(C)C)C(O)C(C)O2)c2c(cc3c(O)c4c(O)ccc(O)c4c(O)c3c2O)C1C(=O)OC (stereo not drawn) [euspeclibcmpd1939] 97.7
C=CCOC(Cn1ccnc1)c1ccc(Cl)cc1Cl (stereo not drawn) [euspeclibcmpd2390] 6.42
O=C(OC[C@H]1O[C@H](OC(=O)c2cc(O)c(O)c(OC(=O)c3cc(O)c(O)c(O)c3)c2)[C@H](OC(=O)c2cc(O)c(O)c(OC(=O)c3cc(O)c(O)c(O)c3)c2)[C@@H](OC(=O)c2cc(O)c(O)c(OC(=O)c3cc(O)c(O)c(O)c3)c2)[C@@H]1OC(=O)c1cc(O)c(O)c(OC(=O)c2cc(O)c(O)c(O)c2)c1)c1cc(O)c(O)c(OC(=O)c2cc(O)c(O)c(O)c2)c1 [euspeclibcmpd649] 8.09
CC(C)(O)c1ccccc1CC[C@@H](SCC1(CC(=O)O)CC1)c1cccc(/C=C/c2ccc3ccc(Cl)cc3n2)c1 [euspeclibcmpd2362] 8.32
CN(C)c1ccc2nc3ccc(N(C)C)cc3[s+]c2c1 [euspeclibcmpd789] 9.06
NCCOB(c1ccccc1)c1ccccc1 [euspeclibcmpd2465] 7.48
CC1OC(O[C@H]2/C=C/C=C/C=C/C=C/C=C/C=C/C=C/[C@H](C)[C@@H](O)[C@@H](C)[C@H](C)OC(=O)CC(O)CC(O)CCC(O)C(O)CC(O)C[C@]3(O)C[C@H](O)C(C(=O)O)C(C2)O3)C(O)[C@H](N)C1O (stereo partly drawn) [euspeclibcmpd24] 1.97
CO[C@H]1CC(O[C@@H]2/C(C)=C/C[C@@H]3C[C@@H](C[C@]4(C=C[C@H](C)[C@@H](C5CCCCC5)O4)O3)OC(=O)C3=CC(C)[C@@H](O)[C@H]4OC/C(=C\C=C\[C@@H]2C)[C@@]34O)O[C@@H](C)C1O[C@H]1C[C@H](OC)[C@@H](O)[C@H](C)O1 (stereo partly drawn) [euspeclibcmpd131] 8.87

Srxn1-GFP intensity median modified Z-score, inactive:
Cc1cccc(Nc2ccccc2C(=O)O)c1C 0.337
CCOc1ccc(NC(=O)CC(C)O)cc1 (stereo not drawn) [euspeclibcmpd1247] -0.424
CC(=O)OC=C1CSC2C(NC(=O)Cc3cccs3)C(=O)N2C1C(=O)O (stereo not drawn) [euspeclibcmpd2267] 0.967
O=C1CCC(N2C(=O)c3ccccc3C2=O)C(=O)N1 (stereo not drawn) [euspeclibcmpd588] -0.192
O=C(Nc1ccccc1Cl)C1=NN(C2CCS(=O)(=O)C2)C(=O)CC1 (stereo not drawn) 1.26
O=C(O)CCCCC1CCSS1 (stereo not drawn) [euspeclibcmpd1157] 0.0225
N=c1ccn([C@H]2CC[C@@H](CO)O2)c(=O)[nH]1 [euspeclibcmpd485] -0.378
COc1ccc(-c2cc(=O)c3c(O)cc(OC)cc3o2)cc1 [euspeclibcmpd1440] -0.308
O=C(/C=C/C=C/c1ccc2c(c1)OCO2)N1CCCCC1 [euspeclibcmpd355] -0.217
COc1ccc(-c2cc(=O)c3c(OC)c(OC)c(OC)cc3o2)cc1OC [euspeclibcmpd1956] 0.209
C#CCN(C)CCCOc1ccc(Cl)cc1Cl [euspeclibcmpd834] 1.05
CC(C)NCC(O)c1cc(O)cc(O)c1 (stereo not drawn) [euspeclibcmpd185] -0.276
COc1cc(/C=C/C(=O)N2CCCCCCC2)cc(OC)c1OC [euspeclibcmpd1272] 0.06
c1ccc(CN(CC2=NCCN2)c2ccccc2)cc1 [euspeclibcmpd501] 0.198
CC(=O)N(CC(O)CN(C(C)=O)c1c(I)c(C(=O)NCC(O)CO)c(I)c(C(=O)NCC(O)CO)c1I)c1c(I)c(C(=O)NCC(O)CO)c(I)c(C(=O)NCC(O)CO)c1I (stereo not drawn) [euspeclibcmpd1935] -0.176
NC(=O)NS(=O)(=O)c1ccc(N)cc1 [euspeclibcmpd1009] -0.532
CC1(C)CC[C@]2(C)CC[C@]3(C)C(=CCC4[C@@]5(C)CC[C@H](O)C(C)(C)C5CC[C@]43C)C2C1 (stereo partly drawn) [euspeclibcmpd1345] 1.93
C=CCSCC1Nc2cc(Cl)c(S(N)(=O)=O)cc2S(=O)(=O)N1 (stereo not drawn) [euspeclibcmpd348] -0.336
Cc1[nH]oc(=NS(=O)(=O)c2ccc(N)cc2)c1C [euspeclibcmpd283] -0.063
CC[C@@H](CO)NCCN[C@@H](CC)CO [euspeclibcmpd120] -0.816
CCN(CC)CCOCCOC(=O)C(CC)(CC)c1ccccc1 [euspeclibcmpd1221] -0.566
Nc1ccccc1C(=O)CC(N)C(=O)O (stereo not drawn) [euspeclibcmpd1714] -0.306
CC(CN(C)C)CN1c2ccccc2Sc2ccccc21 (stereo not drawn) [euspeclibcmpd308] -0.246
CC(C)CCCC(C)NC(C)C (stereo not drawn) [euspeclibcmpd2040] -0.125
N=C(N)NCCN1CCCCCCC1 [euspeclibcmpd2200] -0.141
OC[C@H]1O[C@H](Oc2cc(O)cc(C=Cc3ccc(O)cc3)c2)[C@H](O)[C@@H](O)[C@@H]1O [euspeclibcmpd1401] -0.514
COc1cc(O)ccc1C(C)=O [euspeclibcmpd1664] -0.449
CCNC(=O)/C=C/c1cccc(Br)c1 [euspeclibcmpd2056] 0.0693
COc1ccccc1OCC(O)COC(N)=O (stereo not drawn) [euspeclibcmpd189] -0.108
COc1ccc2c(=O)c(CC(=O)O)coc2c1 [euspeclibcmpd1386] -0.383
CNc1ccccc1C(=O)N1CCc2c([nH]c3ccccc23)C1=O [euspeclibcmpd1696] 0.787
O=C1NC(=O)C(c2ccccc2)(c2ccccc2)N1 [euspeclibcmpd2256] -0.295
FC(F)(F)COCC(F)(F)F [euspeclibcmpd1294] -0.6
CN1Cc2c(N)cccc2C(c2ccccc2)C1 (stereo not drawn) [euspeclibcmpd995] -0.176
CC(=O)Oc1cccc(C)c1 [euspeclibcmpd1228] -0.455
CN(C)CC(c1ccc(O)cc1)C1(O)CCCCC1 (stereo not drawn) [euspeclibcmpd680] -0.56
CC1(C)CC2C1CCC1(C)OC2(C)CCC1O (stereo not drawn) [euspeclibcmpd1567] 0.0481
OCc1ccccc1O [euspeclibcmpd264] -0.00801
O=C(c1ccccc1)c1ccc2n1CCC2C(=O)O (stereo not drawn) [euspeclibcmpd635] -0.00979
COc1c(N2CCNC(C)C2)c(F)cc2c(=O)c(C(=O)O)cn(C3CC3)c12 (stereo not drawn) [euspeclibcmpd1152] 0.136
CC(CCC(=O)O)C1CCC2C3CCC4CC(O)CCC4(C)C3CCC12C (stereo not drawn) [euspeclibcmpd1980] -0.547
CC(C)=CCOc1ccc2c(=O)c(-c3ccccc3)coc2c1 0.352
CCOC(=O)c1c(C)cc(O)cc1O [euspeclibcmpd1626] -0.454
CN(C)CCCN1c2ccccc2Sc2ccc(Cl)cc21 [euspeclibcmpd59] 0.609
CC1(C)C=Cc2cc3ccc(=O)oc3cc2O1 [euspeclibcmpd1414] -0.107
COc1ccnc(C[S+]([O-])c2nc3cc(OC(F)F)ccc3[nH]2)c1OC (stereo not drawn) [euspeclibcmpd709] 0.763
O=c1[nH]c(=O)c2ccccc2o1 [euspeclibcmpd1179] -0.085
NC(Cc1c[nH]c2ccccc12)C(=O)O (stereo not drawn) [euspeclibcmpd315] 0.211
CC(=O)c1c(O)cc(O)cc1O [euspeclibcmpd1563] 0.123
O=c1c(CC[S+]([O-])c2ccccc2)c(O)n(-c2ccccc2)n1-c1ccccc1 (stereo not drawn) [euspeclibcmpd282] -0.197
CCCCN1CCCCC1C(=O)Nc1c(C)cccc1C (stereo not drawn) [euspeclibcmpd607] -0.941
Cc1cc(=O)oc2c(O)c(O)ccc12 [euspeclibcmpd2382] -0.448
CC(C)(C)c1ccc(C(O)CCCN2CCC(C(O)(c3ccccc3)c3ccccc3)CC2)cc1 (stereo not drawn) [euspeclibcmpd598] -1.89
CC12CCCC(O)(C1)C1CC(C)(C)C1CC2 (stereo not drawn) [euspeclibcmpd1586] -0.367
COc1ccc(CC2c3cc(OC)c(OC)cc3CC[N+]2(C)CCC(=O)OCCCCCOC(=O)CC[N+]2(C)CCc3cc(OC)c(OC)cc3C2Cc2ccc(OC)c(OC)c2)cc1OC (stereo not drawn) [euspeclibcmpd881] 0.609
O=c1ccn([C@@H]2O[C@H](COP(=O)(O)OP(=O)(O)OP(=O)(O)O)[C@@H](O)[C@H]2O)c(=O)[nH]1 [euspeclibcmpd2431] 0.468
Cc1nc(-c2ccc(OCC(C)C)c(C#N)c2)sc1C(=O)O [euspeclibcmpd877] 0.0147
C=C(C)C1CC=C(CO)CC1 (stereo not drawn) [euspeclibcmpd1438] -0.37
CC=C(c1ccc(O)cc1)C(CC)c1ccc(O)cc1 (stereo not drawn) [euspeclibcmpd93] 0.179
CC(=O)/N=c1\sc(S(N)(=O)=O)nn1C [euspeclibcmpd555] 0.456
COc1cc(NC(C)CCCN)c2ncccc2c1 (stereo not drawn) [euspeclibcmpd2194] 1.23
CCCCC1(COC(=O)CCC(=O)O)C(=O)N(c2ccccc2)N(c2ccccc2)C1=O [euspeclibcmpd1965] 0.461
CCOC(=O)c1ccc(N)cc1 [euspeclibcmpd34] -0.333
